# In the supplement of paper PMC8728848:
# Some of the results follow.
# B1: MAA (Maackia amurensis), P0DKL3 (protein)
# chain: MATSNSKPTQVLLATFLTFFFLLLNNVNSSDELSFTINNFVPNEADLLFQGEASVSSTGVLQLTRVENGQPQKYSVGRALYAAPVRIWDNTTGSVASFSTSFTFVVKAPNPDITSDGLAFYLAPPDSQIPSGSVSKYLGLFNNSNSDSSNQIVAVELDTYFAHSYDPWDPNYRHIGIDVNGIESIKTVQWDWINGGVAFATITYLAPNKTLIASLVYPSNQTTFSVAASVDLKEILPEWVRVGFSAATGYPTEVETHDVLSWSFTSTLEANCDAATENNVHIARYTA
# How the values were obtained:
# Assay in all cases: glycan array binding signal (z-score within array); higher = stronger binding
# Conditions in all cases: glycan notation: IUPAC condensed, linker removed
# [1] = target: Neu5Ac(a2-3)[GalNAc(b1-4)]Gal(b1-4)Glc
# Outline: (§1)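 Negative Z-scores can be read as non-binding. The Z-score is calculated within each array and then averaged across arrays of one protein sequence at different concentrations or buffers and across linkers. Arrays, 3228 in all, were curated from the Consortium for Functional Glycomics database and kept only where the protein sequence was available.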
# [2] = target: Neu5Ac(a2-3)[GalNAc(b1-4)]Gal(b1-4)GlcNAc
# Outline: as §1
# [3] = target: Neu5Ac(a2-3)[GalNAc(b1-4)]Gal(b1-4)GlcNAc(b1-3)GalNAc
# Outline: as §1
# [4] = target: Neu5Ac(a2-3)[Neu5Ac(a2-6)]GalNAc
# Outline: as §1
# Neu5Ac(a2-6)Gal = target: Neu5Ac(a2-6)Gal
# Outline: as §1
# [5] = target: Neu5Ac(a2-6)Gal(b1-3)GlcNAc(b1-3)[Gal(b1-4)GlcNAc(b1-6)]Gal(b1-4)Glc
# Outline: as §1
# Neu5Ac(a2-6)Gal(b1-4)Glc = target: Neu5Ac(a2-6)Gal(b1-4)Glc
# Outline: as §1
# [6] = target: Neu5Ac(a2-6)Gal(b1-4)GlcNAc
# Outline: as §1
# [7] = target: Neu5Ac(a2-6)Gal(b1-4)GlcNAc(b1-2)Man
# Outline: as §1
# [8] = target: Neu5Ac(a2-6)Gal(b1-4)GlcNAc(b1-2)Man(a1-3)Man(b1-4)GlcNAc(b1-4)GlcNAc
# Outline: as §1
# [9] = target: Neu5Ac(a2-6)Gal(b1-4)GlcNAc(b1-2)Man(a1-3)[Gal(b1-4)GlcNAc(b1-2)Man(a1-6)]Man(b1-4)GlcNAc(b1-4)GlcNAc
# Outline: as §1
# [10] = target: Neu5Ac(a2-6)Gal(b1-4)GlcNAc(b1-2)Man(a1-3)[GlcNAc(b1-2)Man(a1-6)]Man(b1-4)GlcNAc(b1-4)GlcNAc
# Outline: as §1
# [11] = target: Neu5Ac(a2-6)Gal(b1-4)GlcNAc(b1-2)Man(a1-3)[GlcNAc(b1-4)][Neu5Ac(a2-6)Gal(b1-4)GlcNAc(b1-2)Man(a1-6)]Man(b1-4)GlcNAc(b1-4)GlcNAc
# Outline: as §1
# [12] = target: Neu5Ac(a2-6)Gal(b1-4)GlcNAc(b1-2)Man(a1-3)[Man(a1-6)]Man(b1-4)GlcNAc(b1-4)GlcNAc
# Outline: as §1
# [13] = target: Neu5Ac(a2-6)Gal(b1-4)GlcNAc(b1-2)Man(a1-3)[Neu5Ac(a2-3)Gal(b1-4)GlcNAc(b1-2)Man(a1-6)]Man(b1-4)GlcNAc(b1-4)GlcNAc
# Outline: as §1
# [14] = target: Neu5Ac(a2-6)Gal(b1-4)GlcNAc(b1-2)Man(a1-3)[Neu5Ac(a2-6)Gal(b1-4)GlcNAc(b1-2)Man(a1-6)]Man(b1-4)GlcNAc(b1-4)GlcNAc
# Outline: as §1
# [15] = target: Neu5Ac(a2-6)Gal(b1-4)GlcNAc(b1-2)Man(a1-3)[Neu5Ac(a2-6)Gal(b1-4)GlcNAc(b1-2)Man(a1-6)]Man(b1-4)GlcNAc(b1-4)[Fuc(a1-6)]GlcNAc
# Outline: as §1
# [16] = target: Neu5Ac(a2-6)Gal(b1-4)GlcNAc(b1-2)Man(a1-6)Man(b1-4)GlcNAc(b1-4)GlcNAc
# Outline: as §1
# [17] = target: Neu5Ac(a2-6)Gal(b1-4)GlcNAc(b1-2)Man(a1-6)[Gal(b1-4)GlcNAc(b1-2)Man(a1-3)]Man(b1-4)GlcNAc(b1-4)GlcNAc
# Outline: as §1
# [18] = target: Neu5Ac(a2-6)Gal(b1-4)GlcNAc(b1-2)Man(a1-6)[GlcNAc(b1-2)Man(a1-3)]Man(b1-4)GlcNAc(b1-4)GlcNAc
# Outline: as §1
# [19] = target: Neu5Ac(a2-6)Gal(b1-4)GlcNAc(b1-2)Man(a1-6)[Man(a1-3)]Man(b1-4)GlcNAc(b1-4)GlcNAc
# Outline: as §1
# [20] = target: Neu5Ac(a2-6)Gal(b1-4)GlcNAc(b1-2)[Neu5Ac(a2-6)Gal(b1-4)GlcNAc(b1-4)]Man(a1-3)[GlcNAc(b1-4)][Neu5Ac(a2-6)Gal(b1-4)GlcNAc(b1-2)[Neu5Ac(a2-6)Gal(b1-4)GlcNAc(b1-6)]Man(a1-6)]Man(b1-4)GlcNAc(b1-4)GlcNAc
# Outline: as §1
# [21] = target: Neu5Ac(a2-6)Gal(b1-4)GlcNAc(b1-2)[Neu5Ac(a2-6)Gal(b1-4)GlcNAc(b1-4)]Man(a1-3)[GlcNAc(b1-4)][Neu5Ac(a2-6)Gal(b1-4)GlcNAc(b1-4)Man(a1-6)]Man(b1-4)GlcNAc(b1-4)GlcNAc
# Outline: as §1
# [22] = target: Neu5Ac(a2-6)Gal(b1-4)GlcNAc(b1-2)[Neu5Ac(a2-6)Gal(b1-4)GlcNAc(b1-6)]Man(a1-6)[Neu5Ac(a2-6)Gal(b1-4)GlcNAc(b1-2)Man(a1-3)][GlcNAc(b1-4)]Man(b1-4)GlcNAc(b1-4)GlcNAc
# Outline: as §1
# [23] = target: Neu5Ac(a2-6)Gal(b1-4)GlcNAc(b1-3)Gal(b1-3)GlcNAc
# Outline: as §1
# [24] = target: Neu5Ac(a2-6)Gal(b1-4)GlcNAc(b1-3)Gal(b1-4)GlcNAc
# Outline: as §1
# [25] = target: Neu5Ac(a2-6)Gal(b1-4)GlcNAc(b1-3)Gal(b1-4)GlcNAc(b1-2)Man(a1-3)[Neu5Ac(a2-6)Gal(b1-4)GlcNAc(b1-3)Gal(b1-4)GlcNAc(b1-2)Man(a1-6)]GalNAc
# Outline: as §1
# [26] = target: Neu5Ac(a2-6)Gal(b1-4)GlcNAc(b1-3)Gal(b1-4)GlcNAc(b1-3)Gal(b1-4)GlcNAc
# Outline: as §1
# [27] = target: Neu5Ac(a2-6)Gal(b1-4)GlcNAc(b1-3)Gal(b1-4)GlcNAc(b1-3)Gal(b1-4)GlcNAc(b1-2)Man(a1-3)[Neu5Ac(a2-6)Gal(b1-4)GlcNAc(b1-3)Gal(b1-4)GlcNAc(b1-3)Gal(b1-4)GlcNAc(b1-2)Man(a1-6)]GalNAc
# Outline: as §1
# [28] = target: Neu5Ac(a2-6)Gal(b1-4)GlcNAc(b1-3)Gal(b1-4)GlcNAc(b1-3)GalNAc
# Outline: as §1
# [29] = target: Neu5Ac(a2-6)Gal(b1-4)GlcNAc(b1-3)Gal(b1-4)GlcNAc(b1-3)[Neu5Ac(a2-6)Gal(b1-4)GlcNAc(b1-3)Gal(b1-4)GlcNAc(b1-6)]GalNAc
# Outline: as §1
# [30] = target: Neu5Ac(a2-6)Gal(b1-4)GlcNAc(b1-3)Gal(b1-4)GlcNAc(b1-6)[Gal(b1-3)]GalNAc
# Outline: as §1
# [31] = target: Neu5Ac(a2-6)Gal(b1-4)GlcNAc(b1-3)Gal(b1-4)[Fuc(a1-3)]GlcNAc(b1-3)Gal(b1-4)[Fuc(a1-3)]GlcNAc
# Outline: as §1
# [32] = target: Neu5Ac(a2-6)Gal(b1-4)GlcNAc(b1-3)GalNAc
# Outline: as §1
# [33] = target: Neu5Ac(a2-6)Gal(b1-4)GlcNAc(b1-3)[Neu5Ac(a2-6)Gal(b1-4)GlcNAc(b1-6)]GalNAc
# Outline: as §1
# [34] = target: Neu5Ac(a2-6)Gal(b1-4)GlcNAc(b1-6)GalNAc
# Outline: as §1
# [35] = target: Neu5Ac(a2-6)Gal(b1-4)GlcNAc(b1-6)[Gal(b1-3)GlcNAc(b1-3)]Gal(b1-4)Glc
# Outline: as §1
# [36] = target: Neu5Ac(a2-6)Gal(b1-4)GlcNAc(b1-6)[Gal(b1-3)]GalNAc
# Outline: as §1
binder,measurement,setting,value
B1,glycan array binding signal (z-score),[1],-0.238
same,glycan array binding signal (z-score),[2],-0.239
same,glycan array binding signal (z-score),[3],0.081
same,glycan array binding signal (z-score),[4],-0.29
same,glycan array binding signal (z-score),Neu5Ac(a2-6)Gal,-0.205
same,glycan array binding signal (z-score),[5],-0.21
same,glycan array binding signal (z-score),Neu5Ac(a2-6)Gal(b1-4)Glc,-0.035
same,glycan array binding signal (z-score),[6],-0.23
same,glycan array binding signal (z-score),[7],-0.273
same,glycan array binding signal (z-score),[8],-0.196
same,glycan array binding signal (z-score),[9],-0.191
same,glycan array binding signal (z-score),[10],-0.16
same,glycan array binding signal (z-score),[11],-0.172
same,glycan array binding signal (z-score),[12],-0.162
same,glycan array binding signal (z-score),[13],0.622
same,glycan array binding signal (z-score),[14],-0.206
same,glycan array binding signal (z-score),[15],-0.114
same,glycan array binding signal (z-score),[16],-0.21
same,glycan array binding signal (z-score),[17],-0.197
same,glycan array binding signal (z-score),[18],-0.221
same,glycan array binding signal (z-score),[19],-0.124
same,glycan array binding signal (z-score),[20],-0.238
same,glycan array binding signal (z-score),[21],-0.201
same,glycan array binding signal (z-score),[22],-0.247
same,glycan array binding signal (z-score),[23],-0.19
same,glycan array binding signal (z-score),[24],-0.169
same,glycan array binding signal (z-score),[25],0.044
same,glycan array binding signal (z-score),[26],-0.289
same,glycan array binding signal (z-score),[27],0.284
same,glycan array binding signal (z-score),[28],-0.224
same,glycan array binding signal (z-score),[29],0.454
same,glycan array binding signal (z-score),[30],-0.111
same,glycan array binding signal (z-score),[31],-0.161
same,glycan array binding signal (z-score),[32],-0.241
same,glycan array binding signal (z-score),[33],-0.245
same,glycan array binding signal (z-score),[34],-0.114
same,glycan array binding signal (z-score),[35],-0.303
same,glycan array binding signal (z-score),[36],-0.196
